In PubChem BioAssay AID1345083 (National Center for Advancing Translational Sciences (NCATS), 2018):
The campaign covered roughly 94,000 compounds. About 6,200 (6.6%) were called active. This list was built around the results that the source calls inconclusive (neither active nor inactive); the mix of calls is not that of the screen. Calls come from the whole dose curve; as a rule, active = well fitted inhibition curve with a large enough effect; inconclusive = small, poorly fitted or top-dose-only effect; inactive = flat fitted curve, though single readings scatter. A potency beside an inconclusive call is a rough fit, not a confirmed value.

Assay: Cytotoxic Profiling in HEK 293 Cell Line of Diverse Libraries Using Quantitative High-Throughput Screening; note: nearly all actives have a fitted effect of over 60% in size
Details: HEK 293 viability, ATP luminescence (CellTiter-Glo), 48-72 h; activity change, negative = cytotoxicity: at 115 µM (top of the series) unless noted; series mostly up to 115 µM
In short: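 Pintool-delivered compounds were incubated with HEK 293 cells (250 cells/well) at 37 degree Celsius for 48 or 72 hr. ATP-dependent luminescence (CellTiter-Glo) then reported remaining viable cells.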
% is set by controls: 0 for no effect and ±100 for the full control effect; potency is the fitted concentration of half-maximal effect; tags give direction and shape of the fitted curve.

Question: Which Potency does the source give for Cc1ccccc1C(=O)NC1CCCN(c2ccc3nnc(C4CC4)n3n2)C1 (centres undefined) here?
Answer: inconclusive: 100 µM [inhibitor, single point]

Question: For COc1cc(=O)n2c(c1C(=O)Nc1ccc(C)cc1)CCCC2, which “activity change, negative = cytotoxicity” value is on record?
Answer: inactive: -14.6%

Question: Which Potency does the source give for O=C(c1ccc(Cl)cc1)N1CC2(CCN(CC3CCCC3)C2)OCc2ccccc21 (centres undefined) here?
Answer: inconclusive: 89.1 µM [inhibitor, partial curve, poor fit]

Question: For COc1ccc(C(=O)NC2CCCN(c3cc(-c4ccc(F)cc4)[nH]n3)C2)cc1F (centres undefined), which Potency is on record?
Answer: inconclusive: 50.1 µM [inhibitor, partial curve, poor fit]

Question: Which Potency does the source give for CCCNc1cc(N2CCC(CCC(=O)N3CCN(c4ccccc4F)CC3)CC2)ncn1 here?
Answer: inconclusive: 10 µM [inhibitor, full curve, poor fit]

Question: Which “activity change, negative = cytotoxicity” value does the source give for O=C(Cc1ccc(F)cc1)N1CCCC(C(=O)N2CCCC2c2nc3ccncc3[nH]2)C1 (centres undefined) here?
Answer: inactive: -0.225%

Question: For Cc1ccsc1CN1CCC(CO)(CN2CCCC2)CC1, which Potency is on record?
Answer: inconclusive: 89.1 µM [inhibitor, single point]

Question: With Cc1ccc(-c2noc([C@@H]3C[C@@H](O)CN3Cc3cccnc3)n2)cc1F as the compound, how does the Potency read?
Answer: active: 63.1 µM

Question: With CCCCCNC(=O)c1cccc(-c2ccc(OC)nn2)c1 as the compound, how does the Potency read?
Answer: inconclusive: 89.1 µM [inhibitor, partial curve]

Question: With OC1CC(c2cc(N3CCC(CCn4cccn4)CC3)ncn2)C1 (centres undefined) as the compound, how does the Potency read?
Answer: inconclusive: 44.7 µM [inhibitor, partial curve, poor fit]

Question: For Cn1c(=O)c2c(ncn2CC(=O)N2CCCC(Cc3nc(C4CCOCC4)no3)C2)n(C)c1=O (centres undefined), which “activity change, negative = cytotoxicity” value is on record?
Answer: inactive: -5.03%

Question: With O=C1c2c(nc(COc3cccc(F)c3)n2Cc2ccccc2)NCCN1CC1CC1 as the compound, how does the Potency read?
Answer: active: 100 µM

Question: With COc1cccc(CN2Cc3c(CNc4cccc(C(F)(F)F)c4)nnn3CCC2=O)c1 as the compound, how does the Potency read?
Answer: inconclusive: 79.4 µM [inhibitor, partial curve, poor fit]

Question: For CCc1nc2c(c(-c3ccc(OC)cc3)n1)CCN(Cc1ccc(F)cc1)CC2, which Potency is on record?
Answer: inconclusive: 89.1 µM [inhibitor, single point]

Question: For COc1ccc(CN2CC[C@H](c3nnc(-c4cccnc4)o3)C2)c(O)c1, which “activity change, negative = cytotoxicity” value is on record?
Answer: inactive: -3.87% [at 172 µM]

Question: For COc1cc(C(=O)N[C@@H]2[C@@H](c3ccccc3)[C@@H](CO)N3CCCC[C@H]23)cc(OC)c1OC, which Potency is on record?
Answer: inconclusive: 31.6 µM [inhibitor, partial curve, poor fit]

Question: Which “activity change, negative = cytotoxicity” value does the source give for CCO[C@H]1CN(C(=O)CCS(=O)(=O)c2ccccc2)C[C@@H]1O here?
Answer: inactive: -21.6%

Question: For O=C(NCC1Cn2cccc2CN1Cc1cccnc1)c1cccc(F)c1 (centres undefined), which “activity change, negative = cytotoxicity” value is on record?
Answer: inactive: -1.4%

Question: With CCc1noc(-c2cn(C3CCN(C(=O)c4ccc(C)s4)CC3)nn2)n1 as the compound, how does the Potency read?
Answer: inconclusive: 89.1 µM [inhibitor, single point]

Question: For COc1ccc(C2(c3nc(C4CCOC4)no3)CCCC2)cc1OC (centres undefined), which Potency is on record?
Answer: inconclusive: 79.4 µM [inhibitor, single point]

Question: For CO[C@H]1[C@H](NC(=O)c2cnn3cccnc23)c2ccccc2C12CCNCC2, which “activity change, negative = cytotoxicity” value is on record?
Answer: inactive: -2.81%

Question: For CCN1c2cc(C(=O)Nc3ccc(SC)cc3)ccc2C(=O)N2CCCCCC21 (centres undefined), which Potency is on record?
Answer: active: 22.4 µM

Question: With COc1cccc(CNC(=O)C2CCN(c3nccc(Nc4ccccc4F)n3)CC2)c1 as the compound, how does the Potency read?
Answer: inconclusive: 44.7 µM [inhibitor, partial curve, poor fit]

Question: For O=C(CCC1CCCC1)N1CCN2CCS(=O)(=O)N(C3CC3)C(=O)C2C1 (centres undefined), which “activity change, negative = cytotoxicity” value is on record?
Answer: inactive: -7.58%

Question: With COc1ccc(C(=O)N2CCCC(c3nn(-c4ccc(OC)cc4)c(=O)[nH]3)C2)cc1 (centres undefined) as the compound, how does the “activity change, negative = cytotoxicity” value read?
Answer: inactive: -12.5%

Question: With CC1(COc2ccc3[nH]ccc3c2)COc2ccc(C(=O)NCc3cccs3)cc2N1 (centres undefined) as the compound, how does the Potency read?
Answer: inconclusive: 100 µM [inhibitor, partial curve, poor fit]

Question: Which “activity change, negative = cytotoxicity” value does the source give for Cc1ccc(S(=O)(=O)NC[C@H]2O[C@@H](CC(=O)N3CCN(c4ccccc4)CC3)[C@H](O)[C@@H]2O)cc1 here?
Answer: inactive: -4.51%

Question: With CC(C)CNC(=O)c1cn2cc(-c3ccc(F)cc3)sc2n1 as the compound, how does the Potency read?
Answer: inconclusive: 70.8 µM [inhibitor, partial curve]

Question: Which Potency does the source give for CC(c1ccon1)N(C)C(=O)c1csc2nc(-c3cccc(C(F)(F)F)c3)cn12 (centres undefined) here?
Answer: inconclusive: 50.1 µM [inhibitor, partial curve, poor fit]

Question: Which “activity change, negative = cytotoxicity” value does the source give for Cn1ccnc1C(=O)N1C[C@@H](Oc2cccnc2)C[C@H]1C(=O)N1CCCC1 here?
Answer: inactive: -12.8%

Question: For COc1ccc(C)cc1NC(=O)CCc1ccc2c(c1)CN(C(=O)C1CC1)CCO2, which Potency is on record?
Answer: inconclusive: 50.1 µM [inhibitor, partial curve, poor fit]

Question: Which “activity change, negative = cytotoxicity” value does the source give for CCC(O)c1cc2n(n1)CCN(C(=O)c1cn(-c3ccccc3)nn1)C2 (centres undefined) here?
Answer: inactive: -5.52%

Question: For COc1ccccc1OCCNC(=O)c1ccc(Cn2ccn3nc4c(c3c2=O)CCCC4)cc1, which Potency is on record?
Answer: inconclusive: 31.6 µM [inhibitor, partial curve, poor fit]

Question: For Cc1nn(-c2ccccc2)c2c1C(C1CC1)N(C1CN(C(=O)c3ccc(Cl)nc3)C1)C2=O (centres undefined), which Potency is on record?
Answer: inconclusive: 79.4 µM [inhibitor, partial curve]

Question: With Cc1ccc(-c2[nH]ncc2CN2CCN(c3ccc(Cl)cn3)CC2)cc1C as the compound, how does the Potency read?
Answer: active: 35.5 µM

Question: Which Potency does the source give for C#CCNC(=O)C1CCCCN1Cc1ccc(-c2ccsc2)cc1 (centres undefined) here?
Answer: active: 39.8 µM

Question: Which “activity change, negative = cytotoxicity” value does the source give for Cc1ccc(C2Cn3cnc(C(=O)N4CCC(C(=O)NCc5ccccc5F)CC4)c3CO2)cc1 (centres undefined) here?
Answer: inactive: -12.6%

Question: Which Potency does the source give for CC(C)c1ccc(CC(=O)N2CCCc3ncc(C(=O)Nc4ccn(C)n4)cc32)cc1 here?
Answer: active: 89.1 µM

Question: With COc1cccc(NC(=O)[C@@H]2C[C@@H](c3ccc(F)cc3)N(Cc3ccccc3)C2)c1 as the compound, how does the Potency read?
Answer: inconclusive: 44.7 µM [inhibitor, full curve, poor fit]

Question: With Cc1nn(-c2ccccc2)c2c1C(C(C)C)N(C1CCCN(C(=O)c3ccccc3)C1)C2=O (centres undefined) as the compound, how does the Potency read?
Answer: inconclusive: 35.5 µM [inhibitor, full curve, poor fit]

Question: Which Potency does the source give for CN1Cc2ccc(NCc3ccccc3)nc2C(C)(C(=O)NCCc2cnc[nH]2)C1 (centres undefined) here?
Answer: inconclusive: 100 µM [inhibitor, partial curve]

Question: With COc1ccc2c(c1)C(COCc1ccccc1)=CC(C)(C)CO2 as the compound, how does the Potency read?
Answer: inconclusive: 89.1 µM [inhibitor, single point]

Question: With O=C(Cn1ccn2nc(-c3ccccc3)c(CO)c2c1=O)Nc1cc(Cl)cc(Cl)c1 as the compound, how does the Potency read?
Answer: active: 50.1 µM

Question: For CCC(=O)N1CCc2ccc(OCc3nc(C(=O)NCCOC)co3)cc2C1c1ccc(C)cc1 (centres undefined), which Potency is on record?
Answer: active: 28.2 µM

Question: With COc1ccc(-c2ccc3nc(-c4ccc(Cl)cc4)oc3c2)c(OC)c1OC as the compound, how does the “activity change, negative = cytotoxicity” value read?
Answer: inactive: -24.6%

Question: For CCc1ccccc1NC(=O)N1CCC(Oc2ncccc2C(=O)N2CCOCC2)C1 (centres undefined), which “activity change, negative = cytotoxicity” value is on record?
Answer: inactive: -19.6%

Question: Which “activity change, negative = cytotoxicity” value does the source give for O=C(C1CCCN1C(=O)c1ccccc1Cl)N1CCC(N2Cc3ccccc3C2=O)CC1 (centres undefined) here?
Answer: inactive: -16.7%

Question: For O=C(NCc1ccc2c(c1)OCO2)c1nc(-c2cccnc2)c2cnccn12, which Potency is on record?
Answer: inconclusive: 89.1 µM [inhibitor, single point]

Question: For Cc1nn(-c2ccccc2)c2c1C(C)N(C1CN(C(=O)c3ccc(C(F)(F)F)cc3)C1)C2=O (centres undefined), which Potency is on record?
Answer: active: 39.8 µM

Question: Which “activity change, negative = cytotoxicity” value does the source give for CN1CC[C@H](c2nnc(-c3ccc(Cl)cc3)o2)C1 here?
Answer: inactive: -14.9% [at 230 µM]

Question: Which Potency does the source give for Cc1cc2c(c(=O)n(-c3ccccc3)c(=O)n2CC(=O)Nc2ccc(F)cc2)n1C here?
Answer: inconclusive: 89.1 µM [inhibitor, partial curve, poor fit]

Question: Which Potency does the source give for COc1ccccc1C(=O)N1CC(Oc2cccc(-c3nc(-c4ccccc4)no3)c2)C1 here?
Answer: active: 44.7 µM

Question: For CC(=O)Nc1cccc(-c2n[nH]c3c2CC(=O)N(Cc2ccccc2F)C3)c1, which Potency is on record?
Answer: inconclusive: 89.1 µM [inhibitor, partial curve, poor fit]

Question: For CN(C)[C@@H]1CO[C@H](CNS(=O)(=O)c2ccccc2)[C@H]1O, which “outcome” value is on record?
Answer: inactive [at 172 µM]

Question: Which Potency does the source give for O=C(Oc1ccccc1)N1CCC(Oc2cnc3c(ccn3-c3cncnc3)c2)CC1 here?
Answer: active: 56.2 µM

Question: For O=C(c1cccc2[nH]ccc12)N1CC(Oc2ccc(-c3nc(-c4ccccc4)no3)cc2)C1, which Potency is on record?
Answer: inconclusive: 22.4 µM [inhibitor, full curve, poor fit]

Question: For COc1ccc(-n2nc(C)c(CCC(=O)NCC(C)C)c2Oc2ccccc2)cc1, which Potency is on record?
Answer: inconclusive: 79.4 µM [inhibitor, partial curve]

Question: Which “activity change, negative = cytotoxicity” value does the source give for O=C(NC1CCCCC1)N1CCC(N2C(=O)C3(CCCCC3)C2c2ccncc2)CC1 (centres undefined) here?
Answer: inactive: -31.3%

Question: With COc1ccc(-c2nc(C)nc3c2CN([S+](=O)([O-])c2onc(C)c2C)CC3)cc1 as the compound, how does the Potency read?
Answer: inconclusive: 100 µM [inhibitor, single point]

Question: For COc1ccc(Nc2ccnc(N3CCN(C(=O)Cc4ccc(F)cc4)CC3)n2)cc1, which Potency is on record?
Answer: active: 11.2 µM

Question: With COCCN(Cc1ccsc1)Cc1cn[nH]c1-c1ccc(F)cc1 as the compound, how does the Potency read?
Answer: active: 89.1 µM

Question: With CC(=O)c1cccc(NC(=O)Cn2c(-c3ccc(F)cc3)nc(C)cc2=O)c1 as the compound, how does the Potency read?
Answer: active: 44.7 µM

Question: With CC(CCc1ccccc1)NC(=O)C1CCN(c2cc(C(F)(F)F)ncn2)CC1 (centres undefined) as the compound, how does the Potency read?
Answer: inconclusive: 22.4 µM [inhibitor, full curve]

Question: With CCc1ccc(C(=O)N2CCC(CC(=O)NCc3ccccc3)C2)cc1 (centres undefined) as the compound, how does the “activity change, negative = cytotoxicity” value read?
Answer: inactive: -0.396%

Question: For Cc1ccc(C(=O)N2CCCC(n3cc(-c4nc(C(C)C)no4)nn3)C2)cc1 (centres undefined), which Potency is on record?
Answer: inconclusive: 89.1 µM [inhibitor, single point]

Question: Which “activity change, negative = cytotoxicity” value does the source give for COc1ccc(-c2ccccc2NC(=O)C2CCCN(Cc3ccc(F)c(F)c3)C2)cc1 (centres undefined) here?
Answer: inactive: -16.1%

Question: For CN1CC2(C1)C(=O)N(Cc1cccc(Cl)c1)C(=O)[C@@H]1C[C@@H](O)CN12, which “activity change, negative = cytotoxicity” value is on record?
Answer: inactive: -1.11% [at 172 µM]

Question: Which Potency does the source give for O=C(NCc1cccc(Cl)c1)c1nnn2c1COC(c1ccc(Cl)cc1)C2 (centres undefined) here?
Answer: inconclusive: 25.1 µM [inhibitor, full curve, poor fit]

Question: For CCC1=C(C(=O)OC)C(c2ccc(C(C)C)cc2)N2C(CC(=O)N3CCOCC3)=CSC2=N1 (centres undefined), which “activity change, negative = cytotoxicity” value is on record?
Answer: inactive: -27%
